From the antibiotic and cytotoxicity screens of Wong et al. (2023)
The other results are listed elsewhere or left out.

Tests used:
[1] = system: HSkMC (human skeletal muscle cells); assay: cytotoxicity call (relative viability < 0.9); settings: 10 µM
[2] = system: HepG2; assay: cytotoxicity call (relative viability < 0.9); settings: 10 µM
[3] = system: S. aureus RN4220; assay: growth inhibition call (relative growth <= 0.2); settings: 50 µM

CN(C)CC#Cc1ccc([C@H]2[C@H]3CN(C(=O)CN(C)C)CC(=O)N3[C@H]2CO)cc1
inactive: cytotoxicity call [1] | cytotoxicity call [2] | growth inhibition call [3]

CO[C@H]1CN(C)C(=O)c2ccc(NC(=O)Nc3ccc(Cl)cc3)cc2OC[C@@H](C)N(C(=O)Nc2c(C)noc2C)C[C@@H]1C
inactive: cytotoxicity call [1] | cytotoxicity call [2] | growth inhibition call [3]

C[C@H]1CN([C@@H](C)CO)S(=O)(=O)c2ccc(-c3cncnc3)cc2O[C@@H]1CN(C)C(=O)NC1CCCC1
inactive: cytotoxicity call [1] | cytotoxicity call [2] | growth inhibition call [3]

O=C(NCc1ccc(F)cc1)[C@H]1[C@H](CO)[C@H]2Cn3c(cccc3=O)[C@@H]1N2C(=O)c1cnccn1
inactive: cytotoxicity call [1] | cytotoxicity call [2] | growth inhibition call [3]

CNC[C@@H]1OCCCC[C@H](C)Oc2ccc(NC(=O)c3ccncc3)cc2C(=O)N([C@@H](C)CO)C[C@H]1C
inactive: cytotoxicity call [1] | cytotoxicity call [2] | growth inhibition call [3]

O=C(NCc1ccc2c(c1)OCO2)[C@H]1[C@H](CO)[C@H]2Cn3c(cccc3=O)[C@@H]1N2Cc1cncnc1
inactive: cytotoxicity call [1] | cytotoxicity call [2] | growth inhibition call [3]

C[C@@H](NC(=O)C[C@@H]1C=C[C@@H](NC(=O)CN2CCOCC2)[C@H](CO)O1)c1ccccc1
inactive: cytotoxicity call [1] | cytotoxicity call [2] | growth inhibition call [3]

C[C@@H]1CN([C@H](C)CO)S(=O)(=O)c2ccc(Br)cc2O[C@@H]1CN(C)C(=O)CN1CCOCC1
inactive: cytotoxicity call [1] | cytotoxicity call [2] | growth inhibition call [3]

C[C@@H]1CCCCO[C@@H](CN(C)C(=O)Cc2ccccc2)[C@H](C)CN([C@@H](C)CO)C(=O)c2cc(NC(=O)Cc3ccccc3)ccc2O1
inactive: cytotoxicity call [1] | cytotoxicity call [2] | growth inhibition call [3]

C[C@H]1CN([C@@H](C)CO)C(=O)c2cc(/C=C/c3ccccc3)cnc2O[C@H]1CN(C)C(=O)c1cnccn1
inactive: cytotoxicity call [1] | cytotoxicity call [2] | growth inhibition call [3]

CC(C)NC(=O)N(C)C[C@H]1Oc2ccc(NC(=O)CCN3CCOCC3)cc2CC(=O)N([C@H](C)CO)C[C@H]1C
inactive: cytotoxicity call [1] | cytotoxicity call [2] | growth inhibition call [3]

CC[C@@H]1CN(C(=O)c2ccccn2)N1
inactive: cytotoxicity call [1] | cytotoxicity call [2] | growth inhibition call [3]

C[C@@H]1CN([C@H](C)CO)C(=O)c2cc(C3=CCCCC3)cnc2O[C@@H]1CN(C)S(=O)(=O)c1cn(C)cn1
inactive: cytotoxicity call [1] | cytotoxicity call [2] | growth inhibition call [3]

COc1ccc(cc1)CN1CC[C@]2(CC1)CN([C@H](CO)c1[nH]c3cc(ccc3c12)OC)C(=O)CN(C)C
inactive: cytotoxicity call [1] | cytotoxicity call [2] | growth inhibition call [3]

C[C@H]1CN([C@@H](C)CO)C(=O)c2cc(NC(=O)Cn3cnnn3)ccc2O[C@H]1CN(C)S(=O)(=O)c1cccs1
inactive: cytotoxicity call [1] | cytotoxicity call [2] | growth inhibition call [3]

Nc1ccc2c(c1)nc(CO)n2CCO
inactive: cytotoxicity call [1] | cytotoxicity call [2] | growth inhibition call [3]

C[C@@H]1CN([C@@H](C)CO)C(=O)Cc2cc(NS(=O)(=O)c3ccccc3)ccc2O[C@H]1CN(C)S(=O)(=O)c1ccccc1
inactive: cytotoxicity call [1] | cytotoxicity call [2] | growth inhibition call [3]

COc1ccccc1CN1C(=O)c2ccccc2[C@@]2(Cc3ccccc3N(CC(C)C)C2=O)[C@@H]1c1ccc(CO)cc1
inactive: cytotoxicity call [1] | cytotoxicity call [2] | growth inhibition call [3]

COc1cccc(C)c1NC(=O)O[C@H]1[C@H](OC(=O)Nc2ccccc2-c2ccccc2)[C@H](OC(=O)Nc2ccccc2-c2ccccc2)[C@@H](OC)O[C@@H]1CO
inactive: cytotoxicity call [1] | cytotoxicity call [2] | growth inhibition call [3]

COc1ccc(S(=O)(=O)N2c3ccc(Cl)cc3[C@](O)(c3ccccc3Cl)[C@@H]2C(=O)N2CCC[C@H]2C(N)=O)cc1OC
inactive: cytotoxicity call [1] | cytotoxicity call [2] | growth inhibition call [3]

O=C(C[C@@H]1CC[C@@H]2[C@H](COC[C@@H](O)CN2CC2CCOCC2)O1)N1CCOCC1
inactive: cytotoxicity call [1] | cytotoxicity call [2] | growth inhibition call [3]

NCC1OC(OC2C(CO)OC(OC3C(O)C(N)CC(N)C3OC3OC(CN)C(O)C(O)C3N)C2O)C(N)C(O)C1O.O=S(=O)(O)O.O=S(=O)(O)O.O=S(=O)(O)O (stereo not drawn)
inactive: cytotoxicity call [1] | cytotoxicity call [2] | growth inhibition call [3]

Cc1ccc(S(=O)(=O)Nc2ccc3c(c2)CC(=O)N([C@H](C)CO)C[C@H](C)[C@@H](CN(C)S(C)(=O)=O)O3)cc1
inactive: cytotoxicity call [1] | cytotoxicity call [2] | growth inhibition call [3]

C[C@H](CO)N1C[C@H](C)[C@H](CN(C)S(=O)(=O)c2ccccc2)Oc2ccc(NC(=O)Cn3cnnn3)cc2CC1=O
inactive: cytotoxicity call [1] | cytotoxicity call [2] | growth inhibition call [3]

O=C(C[C@@H]1C=C[C@@H](NC(=O)c2ccncc2)[C@@H](CO)O1)NCc1ccncn1
inactive: cytotoxicity call [1] | cytotoxicity call [2] | growth inhibition call [3]

CC(=O)Oc1cc2c(s1)CCN(C(C(=O)C1CC1)c1ccccc1F)C2 (stereo not drawn)
inactive: cytotoxicity call [1] | cytotoxicity call [2] | growth inhibition call [3]
